Source: the supplement of paper PMC8728848
Some of the results follow.

How the values were obtained:
Assay in all cases: glycan array binding signal (z-score within array); higher = stronger binding
Details in all cases: glycan notation: IUPAC condensed, linker removed
[1] = target: GalNAc3S(b1-4)[Fuc(a1-3)]GlcNAc
In short: (§1)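 Columns mapping to the same glycan were averaged after glycan names were converted to IUPAC-condensed notation. The data come from 3228 arrays in the Consortium for Functional Glycomics database, limited to those with an available protein sequence. Binding is reported as a within-array Z-score averaged across arrays of one protein sequence and across linkers.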

GalNAc4S6S(b1-4)GlcNAc = target: GalNAc4S6S(b1-4)GlcNAc
In short: as §1

GalNAc6S(b1-4)GlcNAc = target: GalNAc6S(b1-4)GlcNAc
In short: as §1

Glc(a1-4)Glc = target: Glc(a1-4)Glc
In short: as §1

[2] = target: Glc(a1-4)Glc(a1-4)Glc(a1-4)Glc
In short: as §1

Glc(a1-6)Glc(a1-6)Glc = target: Glc(a1-6)Glc(a1-6)Glc
In short: as §1

[3] = target: Glc(a1-6)Glc(a1-6)Glc(a1-6)Glc
In short: as §1

Glc(b1-4)Glc = target: Glc(b1-4)Glc
In short: as §1

Glc(b1-6)Glc = target: Glc(b1-6)Glc
In short: as §1

GlcA(b1-3)Gal = target: GlcA(b1-3)Gal
In short: as §1

GlcA(b1-3)GlcNAc = target: GlcA(b1-3)GlcNAc
In short: as §1

GlcA(b1-6)Gal = target: GlcA(b1-6)Gal
In short: as §1

[4] = target: GlcA3S(b1-3)Gal(b1-4)GlcNAc(b1-2)Man
In short: as §1

[5] = target: GlcA3S(b1-3)Gal(b1-4)GlcNAc(b1-3)Gal(b1-4)Glc
In short: as §1

[6] = target: GlcNAc(a1-3)Gal(b1-4)GlcNAc
In short: as §1

[7] = target: GlcNAc(a1-4)Gal(b1-3)GlcNAc
In short: as §1

[8] = target: GlcNAc(a1-4)Gal(b1-4)GalNAc
In short: as §1

[9] = target: GlcNAc(a1-4)Gal(b1-4)GlcNAc
In short: as §1

[10] = target: GlcNAc(a1-4)Gal(b1-4)GlcNAc(b1-3)Gal(b1-4)Glc
In short: as §1

[11] = target: GlcNAc(a1-4)Gal(b1-4)GlcNAc(b1-3)Gal(b1-4)GlcNAc
In short: as §1

[12] = target: GlcNAc(a1-4)Gal(b1-4)GlcNAc(b1-3)Gal(b1-4)GlcNAc(b1-3)Gal(b1-4)GlcNAc
In short: as §1

[13] = target: GlcNAc(a1-4)Gal(b1-4)GlcNAc(b1-3)Gal(b1-4)[Fuc(a1-3)]GlcNAc(b1-3)Gal(b1-4)[Fuc(a1-3)]GlcNAc
In short: as §1

[14] = target: GlcNAc(a1-6)Gal(b1-4)GlcNAc
In short: as §1

[15] = target: GlcNAc(b1-2)Gal(b1-3)GalNAc
In short: as §1

[16] = target: GlcNAc(b1-2)Man(a1-3)[GlcNAc(b1-2)Man(a1-6)]Man(b1-4)GlcNAc(b1-4)GlcNAc
In short: as §1

[17] = target: GlcNAc(b1-2)Man(a1-3)[GlcNAc(b1-2)Man(a1-6)]Man(b1-4)GlcNAc(b1-4)[Fuc(a1-6)]GlcNAc
In short: as §1

[18] = target: GlcNAc(b1-2)Man(a1-3)[GlcNAc(b1-4)][GlcNAc(b1-2)Man(a1-6)]Man(b1-4)GlcNAc(b1-4)GlcNAc
In short: as §1

[19] = target: GlcNAc(b1-2)Man(a1-3)[GlcNAc(b1-4)][GlcNAc(b1-2)Man(a1-6)]Man(b1-4)GlcNAc(b1-4)[Fuc(a1-6)]GlcNAc
In short: as §1

[20] = target: GlcNAc(b1-2)[GlcNAc(b1-4)]Man(a1-3)[GlcNAc(b1-2)Man(a1-6)]Man(b1-4)GlcNAc(b1-4)GlcNAc
In short: as §1

[21] = target: GlcNAc(b1-2)[GlcNAc(b1-4)]Man(a1-3)[GlcNAc(b1-4)][GlcNAc(b1-2)Man(a1-6)]Man(b1-4)GlcNAc(b1-4)GlcNAc
In short: as §1

[22] = target: GlcNAc(b1-2)[GlcNAc(b1-4)]Man(a1-3)[GlcNAc(b1-4)][GlcNAc(b1-2)[GlcNAc(b1-6)]Man(a1-6)]Man(b1-4)GlcNAc(b1-4)GlcNAc
In short: as §1

[23] = target: GlcNAc(b1-2)[GlcNAc(b1-4)]Man(a1-3)[GlcNAc(b1-4)][GlcNAc(b1-2)[GlcNAc(b1-6)]Man(a1-6)]Man(b1-4)GlcNAc(b1-4)[Fuc(a1-6)]GlcNAc
In short: as §1

[24] = target: GlcNAc(b1-2)[GlcNAc(b1-6)]Man(a1-6)[GlcNAc(b1-2)Man(a1-3)]Man(b1-4)GlcNAc(b1-4)GlcNAc
In short: as §1

[25] = target: GlcNAc(b1-2)[GlcNAc(b1-6)]Man(a1-6)[GlcNAc(b1-2)Man(a1-3)]Man(b1-4)GlcNAc(b1-4)[Fuc(a1-6)]GlcNAc
In short: as §1

[26] = target: GlcNAc(b1-2)[GlcNAc(b1-6)]Man(a1-6)[GlcNAc(b1-4)][GlcNAc(b1-2)Man(a1-3)]Man(b1-4)GlcNAc(b1-4)GlcNAc
In short: as §1

GlcNAc(b1-3)Fuc = target: GlcNAc(b1-3)Fuc
In short: as §1

GlcNAc(b1-3)Gal = target: GlcNAc(b1-3)Gal
In short: as §1

[27] = target: GlcNAc(b1-3)Gal(b1-3)GalNAc
In short: as §1

B1: PX9937A-bvu-521-23-521 (Bacteroides vulgatus) (protein)
chain: LDLAPEDYYGAGNFWKEASQPKAFMLGLHAQLRSYYDMFYTLGELRGGTQRVGTSSLNTSLNYADIRSQNISEDIPGISNWNGLYSPIMQVNHFIQEVENGCTFLDDATRSRYLGQAYGMRALYYFMLYRTFGGVPLITKVDILDGKPSADKFYVERATPEATMEFIKADINKSENYFGNNTSFDAYDWSRYATLMLKAEIYMWAAKVSITGFTATGATDLQTAKTALSGIIGHFELMDNFASIFSCDNKKNTEIIFAMPFIEGEASNDGGRFLYQDAVFLGQAYGRNGKVIEKDTLNLKGTGGVFRDEYTEDFWKTFKEGDSRRDATFMEYYMKNDNGTLSEFGCVMKKRIGTINSNDNRIYISDIPVYRYADALLMMAEIENGLNNPCASYINEVRKRAYGDTFEENKYTEGSYAENELAILQERDKEFVSEGKRWFDVLRMHDASGRSLVFSANANYPGTNPILGTEEAYKMLWPVNIGTLNVNPLLTQTPGYGKK
- glycan array binding signal (z-score) [1]: -0.255
- glycan array binding signal (z-score) (GalNAc4S6S(b1-4)GlcNAc): 0.055
- glycan array binding signal (z-score) (GalNAc6S(b1-4)GlcNAc): -0.356
- glycan array binding signal (z-score) (Glc(a1-4)Glc): -0.059
- glycan array binding signal (z-score) [2]: 1.98
- glycan array binding signal (z-score) (Glc(a1-6)Glc(a1-6)Glc): -0.379
- glycan array binding signal (z-score) [3]: -0.034
- glycan array binding signal (z-score) (Glc(b1-4)Glc): -0.305
- glycan array binding signal (z-score) (Glc(b1-6)Glc): -0.325
- glycan array binding signal (z-score) (GlcA(b1-3)Gal): -0.456
- glycan array binding signal (z-score) (GlcA(b1-3)GlcNAc): -0.262
- glycan array binding signal (z-score) (GlcA(b1-6)Gal): -0.424
- glycan array binding signal (z-score) [4]: -0.562
- glycan array binding signal (z-score) [5]: -0.349
- glycan array binding signal (z-score) [6]: 0.048
- glycan array binding signal (z-score) [7]: -0.348
- glycan array binding signal (z-score) [8]: -0.293
- glycan array binding signal (z-score) [9]: -0.323
- glycan array binding signal (z-score) [10]: -0.232
- glycan array binding signal (z-score) [11]: -0.421
- glycan array binding signal (z-score) [12]: -0.31
- glycan array binding signal (z-score) [13]: 0.379
- glycan array binding signal (z-score) [14]: -0.372
- glycan array binding signal (z-score) [15]: -0.347
- glycan array binding signal (z-score) [16]: -0.423
- glycan array binding signal (z-score) [17]: -0.224
- glycan array binding signal (z-score) [18]: -0.097
- glycan array binding signal (z-score) [19]: -0.211
- glycan array binding signal (z-score) [20]: -0.709
- glycan array binding signal (z-score) [21]: -0.344
- glycan array binding signal (z-score) [22]: -0.443
- glycan array binding signal (z-score) [23]: -0.497
- glycan array binding signal (z-score) [24]: 0.445
- glycan array binding signal (z-score) [25]: -0.332
- glycan array binding signal (z-score) [26]: -0.532
- glycan array binding signal (z-score) (GlcNAc(b1-3)Fuc): 2.63
- glycan array binding signal (z-score) (GlcNAc(b1-3)Gal): -0.011
- glycan array binding signal (z-score) [27]: -0.399
